A word on the viability, T/C: it is the result in the treated group divided by that in the control group, in per cent.

The test system of this assay is A498 complex spheroid viability. Briefly: Anticancer human tumor A498 cell line growth inhibition.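 Further: spheroids exposed to agents for seven days before readout; 100% = DMSO vehicle-treated spheroids.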 The following applies: stronger effect = lower value. The text has this:
Multicellular complex tumor spheroid response to LSD1 Inhibitor Iadademstat in combination with a variety of drugs and investigational agents in selected tumor cell lines
The current study was undertaken to assess response to LSD1 inhibitors in combination with standard-of-care drugs and investigational agents in solid tumor complex spheroid models as well as in the K-562 leukemia. Complex spheroids include a stromal component modeled by human endothelial cells (HUVEC) and fibroblasts modeled by human mesenchymal stem cells (MSCs). The concentration ranges selected for each drug and investigational agent were based upon clinically achievable concentrations if the clinical Cmax of the agent was known.
Compounds. The drugs and investigational agents used in this study are listed on Table 1. All of the agents used, including staurosporine (NSC755774) and gemcitabine (NSC613327), were obtained from the Developmental Therapeutics Program, NCI. FDA-approved anticancer drugs are available from the NCI at http://dtp.nci.nih.gov/branches/dscb/oncology_drugset_explanation.html. Drugs and investigational agents were >95% pure by proton nuclear magnetic resonance (NMR) and liquid chromatography/mass spectrometry (LC/MS). […] If the clinical Cmax for an agent had not been determined, the highest concentration tested was 10 microM. […]

Certain results were filed several times, with different values. The other results are left out here. The source may hold further records. Results that share an entry are repeats across runs, samples, wells, individuals or studies. Additions like (4×) say how often a value occurs here.

For `NC1CC1c1ccc(-c2cccc(O)c2)cc1` (configuration not stated), the viability, T/C by setting is: (compound alone 1 µM) 93, 96.5, 92.8, 111, 101 (4×), 102, 109 (4×), 92, 98.4, 103, 97, 104, 89.7, 87.3, 92.4, 116, 93.9, 90.2, 94.4%; (compound alone 3.16 µM) 89, 90.4, 82.6, 105, 100, 94.5, 108, 90.8, 107 (2×), 102, 101 (3×), 92.2, 92.3, 90, 92.8, 112, 91.9, 109, 86.8, 111, 91.4, 89.8%.

Values taken from PubChem BioAssay AID1918947 (Molecular Pharmacology Branch, DTP, NCI, 2023).
